The labels stand for the following.
B1: TEV protease; numbered along this chain (parent)
chain: MGESLFKGPRDYNPISSSICHLTNESDGHTTSLYGIGFGPFIITNKHLFRRNNGTLVVQSLHGVFKVKDTTTLQQHLVDGRDMIIIRMPKDFPPFPQKLKFREPQREERICLVTTNFQTKSMSSMVSDTSCTFPSGDGIFWKHWIQTKDGQCGSPLVSTRDGFIVGIHSASNFTNTNNYFTSVPKNFMELLTNQEAQQWVSGWRLNADSVLWGGHKVFMVKPEEPFQPVKEATQL

The other results are listed elsewhere or left out. The full chains were built here from the parent and the listed change. Inactive controls read about 0.05.
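Further: Bxb1 expression induced with 0.2% (w/v) L-rhamnose at OD600 near 0.5, cultures sampled hourly, flipped fraction per protease–substrate barcode pair counted by paired-end Illumina sequencing.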

This test covers variants of B1. Nature of the test: raw area under fraction-flipped curve 0-4 h after induction (AUC4h, not background-subtracted), DNA-recorder readout of cleavage of the substrate (dimensionless); higher = more cleavage of the substrate by the protease variant. The settings on record: temperature: 34 °C; time window: 0-4 h after rhamnose induction.
Take F180Q: the “area with substrate ENKYFQS” value is 0.0375 and the “area with substrate ENQYFQS” value stood at 0.0572.

Regarding N178F, the “area with substrate ENFYFQS” value is 0.141, the “area with substrate ENHYFQS” value turned out to be 0.0572, the “area with substrate ENMYFQS” value worked out at 0.19 and the “area with substrate ENTYFQS” value stood at 0.0876. Further, the “area with substrate ENVYFQS” value is 0.185.

Take E103F: the “area with substrate ENFYFQS” value turned out to be 0.0615, the “area with substrate ENHYFQS” value stood at 0.0802, the “area with substrate ENKYFQS” value was 0.0645 and the “area with substrate ENNYFQS” value turned out to be 0.0654. Moreover, the “area with substrate ENQYFQS” value turned out to be 0.0629, the “area with substrate ENRYFQS” value is 0.0592, the “area with substrate ENSYFQS” value came to 0.0445 and the “area with substrate ENYYFQS” value came out at 0.0542.

Take Y179W: the “area with substrate ENFYFQS” value was determined as 0.0575, the “area with substrate ENHYFQS” value is 0.0599, the “area with substrate ENIYFQS” value is 0.0328 and the “area with substrate ENMYFQS” value is 0.0514. Also, the “area with substrate ENNYFQS” value amounted to 0.0534, the “area with substrate ENQYFQS” value came out at 0.0433 and the “area with substrate ENSYFQS” value is 0.0809.

Regarding V58T, the “area with substrate ENGYFQS” value came to 0.0656, the “area with substrate ENQYFQS” value worked out at 0.0069, the “area with substrate ENRYFQS” value stood at 0.0547 and the “area with substrate ENSYFQS” value is 0.0505. For the same variant, the “area with substrate ENTYFQS” value was determined as 0.0774.

Turning to G213Q, the “area with substrate ENQYFQS” value was found to be 0.0606 and the “area with substrate ENSYFQS” value came to 0.0746.

With G213N, the “area with substrate ENFYFQS” value stood at 0.0642, the “area with substrate ENHYFQS” value amounted to 0.046, the “area with substrate ENPYFQS” value came to 0.0633 and the “area with substrate ENQYFQS” value was 0.0506. Further, the “area with substrate ENSYFQS” value turned out to be 0.0338, the “area with substrate ENVYFQS” value worked out at 0.0617 and the “area with substrate ENWYFQS” value is 0.0374.

As for L205D, the “area with substrate ENFYFQS” value worked out at 0.0531, the “area with substrate ENGYFQS” value was 0.0614, the “area with substrate ENKYFQS” value was 0.0504 and the “area with substrate ENNYFQS” value is 0.0759. For the same variant, the “area with substrate ENPYFQS” value turned out to be 0.0626, the “area with substrate ENQYFQS” value was 0.0698, the “area with substrate ENSYFQS” value amounted to 0.0686 and the “area with substrate ENVYFQS” value stood at 0.0611. The “area with substrate ENWYFQS” value was 0.0651.

With G35N, the “area with substrate ENFYFQS” value was 0.0292, the “area with substrate ENSYFQS” value stood at 0.0481 and the “area with substrate ENYYFQS” value was 0.0371.

With I110P, the “area with substrate ENFYFQS” value turned out to be 0.0621, the “area with substrate ENHYFQS” value worked out at 0.057, the “area with substrate ENIYFQS” value was determined as 0.0653 and the “area with substrate ENNYFQS” value came out at 0.0505. The “area with substrate ENQYFQS” value was 0.0687 and the “area with substrate ENRYFQS” value came to 0.061.

Regarding E195V, the “area with substrate ENGYFQS” value came to 0.0633, the “area with substrate ENQYFQS” value amounted to 0.055 and the “area with substrate ENTYFQS” value was found to be 0.0697.

Consider L211S, for which the “area with substrate ENKYFQS” value amounted to 0.0542, the “area with substrate ENMYFQS” value amounted to 0.0637 and the “area with substrate ENSYFQS” value came to 0.0676.

With N193D, the “area with substrate ENNYFQS” value was determined as 0.0641, the “area with substrate ENQYFQS” value was found to be 0.0481, the “area with substrate ENRYFQS” value came to 0.0737 and the “area with substrate ENSYFQS” value was 0.0684. Besides, the “area with substrate ENTYFQS” value is 0.0691 and the “area with substrate ENVYFQS” value stood at 0.0781.

In the case of K68M, the “area with substrate ENHYFQS” value was determined as 0.0706, the “area with substrate ENKYFQS” value was determined as 0.0938 and the “area with substrate ENVYFQS” value was 0.0765.

For the variant C131Y, the “area with substrate ENMYFQS” value came to 0.0777 and the “area with substrate ENNYFQS” value amounted to 0.0518.

As to Y34K, the “area with substrate ENTYFQS” value was found to be 0.068.

Turning to Q227R, the “area with substrate ENHYFQS” value stood at 0.0429, the “area with substrate ENIYFQS” value is 0.102, the “area with substrate ENKYFQS” value stood at 0.0722 and the “area with substrate ENMYFQS” value stood at 0.0836. Also, the “area with substrate ENPYFQS” value is 0.0569, the “area with substrate ENSYFQS” value amounted to 0.0637, the “area with substrate ENVYFQS” value is 0.115 and the “area with substrate ENWYFQS” value was 0.0544. In addition, the “area with substrate ENYYFQS” value came to 0.0691.

Consider E223G, for which the “area with substrate ENGYFQS” value turned out to be 0.0685, the “area with substrate ENHYFQS” value came out at 0.0451, the “area with substrate ENMYFQS” value was found to be 0.0959 and the “area with substrate ENVYFQS” value worked out at 0.0865.

Regarding D91L, the “area with substrate ENMYFQS” value stood at 0.0581 and the “area with substrate ENVYFQS” value came out at 0.0494.

With P93F, the “area with substrate ENKYFQS” value is 0.0598, the “area with substrate ENMYFQS” value came out at 0.0619, the “area with substrate ENNYFQS” value was found to be 0.0655 and the “area with substrate ENPYFQS” value is 0.0652. In addition, the “area with substrate ENQYFQS” value stood at 0.0596, the “area with substrate ENRYFQS” value worked out at 0.0557, the “area with substrate ENSYFQS” value was 0.0541 and the “area with substrate ENTYFQS” value was 0.0675.

With N206A, the “area with substrate ENGYFQS” value was 0.0828 and the “area with substrate ENSYFQS” value amounted to 0.0765.

In the case of R87W, the “area with substrate ENFYFQS” value came out at 0.0646, the “area with substrate ENGYFQS” value worked out at 0.0582, the “area with substrate ENKYFQS” value came out at 0.0888 and the “area with substrate ENMYFQS” value was 0.0835. Moreover, the “area with substrate ENNYFQS” value stood at 0.0592, the “area with substrate ENPYFQS” value was found to be 0.058, the “area with substrate ENQYFQS” value was 0.0495 and the “area with substrate ENSYFQS” value came out at 0.0744. Also, the “area with substrate ENVYFQS” value was 0.0703 and the “area with substrate ENWYFQS” value came to 0.0527.

For T70M, the “area with substrate ENFYFQS” value was determined as 0.0555, the “area with substrate ENGYFQS” value was 0.0584, the “area with substrate ENQYFQS” value worked out at 0.074 and the “area with substrate ENRYFQS” value is 0.0579. Further, the “area with substrate ENSYFQS” value stood at 0.0659, the “area with substrate ENVYFQS” value turned out to be 0.0805 and the “area with substrate ENYYFQS” value worked out at 0.0269.

Regarding G138C, the “area with substrate ENTYFQS” value came to 0.0321 and the “area with substrate ENYYFQS” value is 0.0509.

Take G8E: the “area with substrate ENQYFQS” value was 0.0273.

The values are drawn from the supplement of paper PMC12217912.
